In all, about 110,000 compounds went through this assay and about 230 (0.21%) showed an effect of 50% or more. The list shows a part of the results.
Molecular target: DPAP1 (Plasmodium falciparum, UniProt Q8IIJ9)
Assay: primary screen, percent inhibition; read by cleavage of a fluorogenic dipeptide substrate; higher = more effect of the substance
Parameters: species or system P. falciparum D10 trophozoite lysates; single well
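Also: 30 min substrate incubation versus DMSO and 10 µM JCP410 controls.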

Chain of DPAP1 (Q8IIJ9 whole entry, looked up): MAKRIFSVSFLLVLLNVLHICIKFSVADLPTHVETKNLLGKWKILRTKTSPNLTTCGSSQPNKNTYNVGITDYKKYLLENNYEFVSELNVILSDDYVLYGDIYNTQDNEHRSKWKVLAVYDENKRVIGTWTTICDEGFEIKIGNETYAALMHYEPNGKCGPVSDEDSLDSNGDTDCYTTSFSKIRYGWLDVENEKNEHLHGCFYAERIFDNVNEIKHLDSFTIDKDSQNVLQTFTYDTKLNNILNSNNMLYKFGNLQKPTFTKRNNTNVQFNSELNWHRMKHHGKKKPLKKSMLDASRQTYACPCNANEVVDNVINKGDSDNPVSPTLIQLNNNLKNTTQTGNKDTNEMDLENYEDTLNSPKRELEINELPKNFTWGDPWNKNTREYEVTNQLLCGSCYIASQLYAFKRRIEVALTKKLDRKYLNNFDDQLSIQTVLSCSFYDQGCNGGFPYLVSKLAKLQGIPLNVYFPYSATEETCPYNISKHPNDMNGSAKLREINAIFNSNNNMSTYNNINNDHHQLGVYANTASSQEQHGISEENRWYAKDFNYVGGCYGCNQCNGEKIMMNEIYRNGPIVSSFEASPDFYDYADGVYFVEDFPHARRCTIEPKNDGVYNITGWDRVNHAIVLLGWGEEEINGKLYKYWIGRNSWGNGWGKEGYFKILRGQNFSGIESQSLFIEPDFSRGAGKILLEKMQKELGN

SMILES | % Inhibition @ 10 uM [%]
COc1ccc(C(=O)Nc2cc(C)c(C)cc2O)cc1 | -7.69
COc1ccc(OC)c(CNCc2c(C(=O)O)n(Cc3ccccc3C)c3cc(OC)ccc23)c1 | 0.616
Cc1cc(NCCN2CCCCC2)c2ccc3ccccc3c2n1 | -2.14
OCC1CCCCN1Cc1ccsc1 (centres unmarked) | 2.22
COc1ccc(CCNC(=O)c2ccc3c(SCC(=O)O)c4c(nc3c2)CCCC4)cc1OC | 4.15
C=CCNC(=O)/C=C/c1ccc(OC)c(OC)c1 | 1.25
O=C(c1cccc(C(=O)N2CCCc3ccccc32)c1)N1CCCc2ccccc21 | -3.8
CCOC(=O)c1cc(-c2ccc(OC)cc2)n(CCC(=O)N2CCn3c2nc2ccccc23)c1C | -0.668
Cc1ccccc1Cn1cc(CCCC(=O)O)c2ccccc21 | 15.6
Cc1ccnc(NC(=O)Cn2ncc3c2-c2cc(C)ccc2OC3)c1 | -0.405
CC(C)C[C@@H](C(=O)NC1(C#N)CC1)c1cccc(-c2ccc(N3CCN(CC(F)(F)F)CC3)cc2)c1 | 1.7
Cc1ccc(C2=N/C(=C\c3ccc4c(c3)OCO4)C(=O)O2)cc1 | 1.47
CCC(C)c1ccccc1OCC(=O)Nc1ccccc1C#N (centres unmarked) | -1.89
OC1CCCN(Cc2ccccc2Br)C1 (centres unmarked) | -2.81
CS(=O)(=O)c1ncc(Cl)c(C(=O)N(Cc2ccccc2)c2ccccn2)n1 | -6.85
CC12CN3CC(c4ccccc4)(CN(C1)C3c1ccc(F)cc1)C2=O (centres unmarked) | -3.08
COc1ccc2cc(Br)ccc2c1CC(=O)Nc1ccc(Cl)cn1 | -0.25
CC1CCN(C(=O)CSc2nnc(Cc3cccn3C)n2-c2cccc(C(F)(F)F)c2)CC1 | 0.44
COc1ccc(-c2cs/c(=N\c3ccccc3)n2CCCN(C)C)cc1 | -7.34
COc1cc(N)c(C)cc1NC(C)=O | 0.912
CC1CCN(S(=O)(=O)c2ccc(-c3ccc(S(=O)(=O)N4CCC(C)CC4)cc3)cc2)CC1 | 4.93
COCCCN1COc2ccc3c(C)c(Cc4ccccc4)c(=O)oc3c2C1 | 0.723
CCOc1ccc(C(=O)Nc2ccccc2F)cc1Br | 2.44
CCC(=O)Nc1ccc(Cl)c(-c2nc3ncccc3o2)c1 | 5.12
CCC(C)N1C(=O)S/C(=C/c2cc3c(cc2OC)OCO3)C1=O (centres unmarked) | 1.86
CCCCCc1nnc(NC(=O)Nc2[nH]c(C)c(C(=O)OCC)c2C)s1 | -0.671

SMILES | % Inhibition @ 10 uM [%]
CCOC(=O)c1cnc2c(Cl)c(Cl)ccc2c1NCCN(C)C | -6.86
Cc1ccc(C(=O)Nc2ccc3c(c2)OCO3)cc1 | -3.44
CC(C)OCCCNC(=O)CCCCCNc1nc(S)nc2ccccc12 | -4.1
CCc1ccc(-c2nc(CSCC(=O)NCCc3ccc(OC)c(OC)c3)c(C)o2)cc1 | 0.689
O=C1Sc2ccccc2C1=O | -1.99
CCCCNC(=O)c1nn2c(c1Cl)NC(c1ccccc1)CC2C(F)(F)F (centres unmarked) | -0.142
CCOc1ccc(-c2nc(O)c3c(n2)Oc2ccc(C(=O)OC)cc2C3)cc1 | 3.92
C=CCN1C(=O)C(CC(=O)Nc2ccc(C)cc2C)S/C1=N\c1ccc(C(C)=O)cc1 (centres unmarked) | -5.67
Cc1cccc(-n2nc(C)c3c(C)cc(=O)oc32)c1 | -6.94
CCCCOc1ccc(S(=O)(=O)N2CCN(C)CC2)cc1 | 1.88
Cc1nn(-c2ccccc2)c2c1C(c1ccc(Br)s1)C(C#N)=C(N)O2 (centres unmarked) | -7.34
COc1ccc(C)cc1N(CC(=O)N1CCCCCC1)S(=O)(=O)c1ccccc1 | 5.39
CS(=O)(=O)N(CC(=O)N1CCN(c2ccccc2)CC1)c1ccccc1Br | 2.43
CC1CCCN(C(=O)c2nc(-c3ccc(Cl)cc3)n3c2CCCCC3)C1 (centres unmarked) | 5.92
O=c1c2c3c(sc2n2c(S)nnc2n1-c1ccccc1)CCCC3 | 1.04
N#CCNC(=O)[C@H](Cc1ccc(Cl)cc1Cl)NC(=O)OCc1ccccc1 | 1.35
CCO/C(O)=C1\C(C)=NC(=S)NC1c1cn(-c2ccccc2)nc1-c1ccc(OC)cc1 (centres unmarked) | -3.75
O=S1(=O)CCC(S(=O)(=O)N2CCOCC2)C1 (centres unmarked) | 0.937
CC(=O)C1=C(C)Nc2sc(C(N)=O)c(N)c2C1c1cccnc1 (centres unmarked) | -0.267
CC(C)c1ncc(C(O)c2cccc3ccccc23)n1C (centres unmarked) | -0.67
CN(c1nnc(NC(=O)NC2CCCC2)s1)C1CCCCC1 | -8.54
Cc1cccc(Sc2ccncc2S(=O)(=O)NC(=O)c2ccc(Cl)cc2)c1 | -10.2
CCCN(CCC)C(=O)c1cnn(-c2ccccc2Cl)c1NC(C)=O | -1.17
CCOc1cc(CCn2cnc3c4cc(F)ccc4nc-3c2O)ccc1OC | 3.24
COc1ccc(CCNc2nc3ccc(C(=O)c4ccccc4)cc3n3cnnc23)cc1OC | -4.66
Cc1ccc(OCC(=O)Nc2nn3c(C)nnc3s2)cc1C | -4.69

SMILES | % Inhibition @ 10 uM [%]
CC(C)(C)NS(=O)(=O)c1ccc(Cc2ccc(S(=O)(=O)NC(C)(C)C)cc2)cc1 | 8.06
COc1ccccc1-c1cc2nc(C)c(CCC(=O)NC(C)c3cccs3)c(C)n2n1 (centres unmarked) | 4.34
O=C1c2ccccc2-c2nc3ccc([N+](=O)[O-])cc3nc21 | -2.78
Cc1cc(C)c(C(=O)CC2(O)C(=O)N(C)c3ccccc32)c(C)c1 (centres unmarked) | 4.41
CC(SC1=NN2CCCC(=O)N=C2S1)c1ccccc1 (centres unmarked) | 0.718
CCOc1ccccc1C(=O)N1CCN(c2ncccn2)CC1 | 3.94
Cc1c(-c2ccccc2)sc(N)c1C#N | 19.1
CC(C)(C)c1ccc(C2CC(=O)C(/C=N/CCN3CCNCC3)=C(O)C2)cc1 (centres unmarked) | -1.33
Cc1cc(C(=O)Nc2ccc3c(c2)OCCO3)c(C)o1 | 0.726
O=C(NCCc1ccccc1)c1cc(-c2ccccc2)c(N2CCOCC2)s1 | -4.69
O=C(CCc1nnc2n(Cc3ccccc3)c(=O)c3ccccc3n12)NCCCN1CCCC1=O | 0.981
COc1cc(Br)c(/C=C2\SC(NC(C)=O)=NC2=O)cc1OC | 2.23
CCCN1C(=O)c2cc(C(=O)NCc3cccs3)ccc2C1O (centres unmarked) | 0.195
COc1ccc(CCc2nc(-c3ccc(-n4cccc4)cc3)no2)cc1 | -7.38
CC(C)NC(=O)c1ccccc1NC(=O)CCc1ccccc1 | -2.66
CC(=O)CC(CC(=O)O)c1ccccc1 (centres unmarked) | -1.74
Cc1ccc(CNC(=O)CSc2nc3nc(C)cc(C)n3n2)cc1 | -2.14
CCOc1ccc(C(=O)C2=C(O)C(=O)N(c3nccs3)C2c2cccc(Cl)c2)cc1 (centres unmarked) | -3.06
CCOc1ccc(C2Oc3c(OCC)cccc3C3CC(c4ccco4)=NN32)cc1 (centres unmarked) | 9.35
COC(=O)c1c(NC(=O)C2=CCN(S(=O)(=O)c3ccc(C)cc3)CC2)sc(C)c1C | -3.94
COc1cccc(CN(C(=O)/C=C/c2ccc(C)cc2)C2CCS(=O)(=O)C2)c1 (centres unmarked) | 2.02
COc1ccc(Cn2c(C(=O)O)c(CNCc3ccc4c(c3)OCO4)c3ccc(OC)cc32)cc1 | 1.53
CCOc1ccccc1NC(=O)c1cc(OC)cc(OC)c1 | 0.795
O=C(c1cccc(F)c1F)N1CCOCC1 | -0.128
CCOC(=O)N1CCN(C(=O)C2CCN(C(=O)c3cc(OC)cc(OC)c3)CC2)CC1 | 3.47
CCOc1ccccc1NC(=O)CC(O)(C(F)(F)F)C(F)(F)F | -1.28

SMILES | % Inhibition @ 10 uM [%]
COc1ccc(/N=c2\scc(-c3ccc4c(c3)OCO4)n2CCO)cc1 | -5.97
Brc1ccc(CN2CCN(c3ccccc3)CC2)o1 | 3.01
CCC1CCCCN1CCCNC(=O)c1cc2cc3cc(OC)ccc3nc2s1 (centres unmarked) | 1.22
CCCCC/N=C/c1sc2ccc(OCC)cc2c1O | -4.13
CC(C)c1nc2cc3sc(C(C)C)nc3cc2s1 | -4.78
COc1cccc(OC)c1C(=O)N1CCC(C(=O)O)CC1 | -0.169
COC(=O)C1=C(C)NC(=O)CC1c1ccccc1Br (centres unmarked) | 0.565
CC(NC(=O)c1ccc(C(C)(C)C)cc1)C(=O)O (centres unmarked) | 3.46
Cc1nc2cccnc2n1-c1ccc(C(=O)NCc2ccccc2)cc1 | 4.79
Cc1ccc(OCCCCN2CCCC2)c(C)c1 | -2.12
FC(F)(F)c1cccc(N2CCN(Cc3ccc(-c4ccccc4)cc3)CC2)c1 | -7.49
COc1ccc2c(C)c(CCC(=O)N3CCCC3)c(=O)oc2c1 | 2.54
Cc1nn2c3c(cnc2c1-c1ccc(Cl)cc1)C(=O)CC(c1ccco1)C3 (centres unmarked) | -4.78
CCN(CC)C(=O)c1sc2nc3c(cc2c1N)CN(C(C)C)CC3 | 9.61
Cc1cc2c(C)nc(-c3ccccc3)nc2o1 | -0.436
CCCn1nc(Oc2nc(NCC)nc(NC(C)C)n2)ccc1=O | 2.56
CN1C2=C(C(=O)CCC2)C(c2ccc(O)cc2)C2=C1CCCC2=O | 6.58
CCNC(=O)c1cc(-c2cccc(Br)c2)nc2ccccc12 | 4.96
CC1CC(C)CN(C(=O)C(C)n2sc3ccccc3c2=O)C1 (centres unmarked) | -4.09
O=C(Nc1ccccc1)c1cccc(S(=O)(=O)N2CCC(Cc3ccccc3)CC2)c1 | 1.67
COc1ccc(-c2nc(-c3ccc(-n4cccc4)cc3)no2)cc1 | 4.19
Cc1cc(-c2noc(COc3c(F)c(F)cc(F)c3F)n2)c2ccccc2n1 | -2.91
CCN(CC)C(=O)CN(c1cc(C)ccc1C)S(=O)(=O)c1ccc(C)cc1 | -8.67

— publication PMC6919601, “Identification of Plasmodium dipeptidyl aminopeptidase allosteric inhibitors by high throughput screening” (PLoS ONE, 2019)
